We go through 57 compounds from PMC4336329 (PLoS ONE, 2015).

Among all 310,000 compounds or so, about 2,200 (0.71%) showed an effect of 50% or more. Effects have a minus sign here. This is one part of the list.

In this experiment the target is human ether-à-go-go-related gene (hERG) potassium channel (human, UniProt Q12809). The experiment can be described thus: primary screen, population patch clamp on CHO cells stably expressing hERG.
human ether-à-go-go-related gene (hERG) potassium channel, sequence (Q12809 whole entry, looked up): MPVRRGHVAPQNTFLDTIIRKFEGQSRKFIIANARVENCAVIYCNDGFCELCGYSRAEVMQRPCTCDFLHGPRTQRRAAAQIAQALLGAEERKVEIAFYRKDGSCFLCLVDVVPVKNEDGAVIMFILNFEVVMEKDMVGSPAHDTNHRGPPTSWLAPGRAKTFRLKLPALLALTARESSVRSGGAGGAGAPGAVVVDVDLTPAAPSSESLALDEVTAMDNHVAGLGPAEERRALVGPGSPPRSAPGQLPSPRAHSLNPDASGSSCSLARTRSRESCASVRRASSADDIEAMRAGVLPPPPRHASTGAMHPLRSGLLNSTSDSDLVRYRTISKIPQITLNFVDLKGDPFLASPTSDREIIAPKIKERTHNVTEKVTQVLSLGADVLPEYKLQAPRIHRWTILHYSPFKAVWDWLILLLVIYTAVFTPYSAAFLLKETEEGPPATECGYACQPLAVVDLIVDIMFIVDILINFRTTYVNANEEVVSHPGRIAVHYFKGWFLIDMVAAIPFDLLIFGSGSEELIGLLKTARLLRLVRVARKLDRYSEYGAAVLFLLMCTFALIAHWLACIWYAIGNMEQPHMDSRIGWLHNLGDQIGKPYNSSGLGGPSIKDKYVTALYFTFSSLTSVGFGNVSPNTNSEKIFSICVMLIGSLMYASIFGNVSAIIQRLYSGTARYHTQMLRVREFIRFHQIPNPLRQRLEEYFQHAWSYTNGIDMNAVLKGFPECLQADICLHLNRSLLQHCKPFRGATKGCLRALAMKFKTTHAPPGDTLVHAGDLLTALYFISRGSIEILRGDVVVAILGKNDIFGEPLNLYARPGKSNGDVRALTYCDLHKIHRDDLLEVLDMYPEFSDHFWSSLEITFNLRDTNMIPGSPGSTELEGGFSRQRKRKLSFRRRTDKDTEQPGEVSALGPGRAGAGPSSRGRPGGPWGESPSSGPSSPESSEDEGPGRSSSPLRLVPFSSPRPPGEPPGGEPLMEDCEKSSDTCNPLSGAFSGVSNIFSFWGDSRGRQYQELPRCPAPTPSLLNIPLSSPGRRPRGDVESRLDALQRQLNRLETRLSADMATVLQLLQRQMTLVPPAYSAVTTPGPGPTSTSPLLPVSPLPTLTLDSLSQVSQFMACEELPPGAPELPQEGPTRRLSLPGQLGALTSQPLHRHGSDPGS
With `COc1cccc(NC(=O)COC(=O)c2ccccc2F)c1`, the “hERG current change (%, negative = inhibition) at 1uM” value came to 12.2%.

Take `CCCCCCSc1ccc(-c2nc3ccc(C)cn3c2NCc2ccccc2)cc1OC.O=C(O)C(F)(F)F`: the “hERG current change (%, negative = inhibition) at 1uM” value is reported as 8.2%.

Turning to `NC(N)=NC1=NC(=O)C(Cc2ccccc2Cl)S1` (stereo not drawn), the “hERG current change (%, negative = inhibition) at 1uM” value was determined as 25.7%.

Take `N/C(CS(=O)(=O)c1ccccn1)=N\OC(=O)c1ccccc1Cl`: the “hERG current change (%, negative = inhibition) at 1uM” value is listed as 7.04%.

As to `CCCOC(=O)CC1C(=O)NCCN1C(=O)OC(C)(C)C` (stereo not drawn), the “hERG current change (%, negative = inhibition) at 1uM” value was 10.4%.

Turning to `O=C(CNC(=O)c1ccc(OC(F)F)cc1)NCC1CCCO1` (stereo not drawn), the “hERG current change (%, negative = inhibition) at 1uM” value came to 10.6%.

For `CCOC(=O)N1N=C(c2ccccc2)CC1(O)C(C)(F)F` (stereo not drawn), the “hERG current change (%, negative = inhibition) at 1uM” value came out at 13.5%.

Regarding `CC(=O)c1cccc(NC(=O)Nc2cccnc2)c1`, the “hERG current change (%, negative = inhibition) at 1uM” value turned out to be 3.96%.

Take `CCOC(=O)C1CCCN(C(=O)c2ccc3c(=O)n(CCOC)c(=S)[nH]c3c2)C1` (stereo not drawn): the “hERG current change (%, negative = inhibition) at 1uM” value was -4.53%.

On to `C=CCn1c(CSc2ccc(C)cc2)n[nH]c1=S`, for which the “hERG current change (%, negative = inhibition) at 1uM” value is listed as 15%.

Take `CSc1ccc(S(=O)(=O)N2CCC(C(=O)N3CCOCC3)CC2)cc1`: the “hERG current change (%, negative = inhibition) at 1uM” value is 4.71%.

In the case of `COC(=O)C1CCN(C(=O)C23CCC(C)(C(=O)O2)C3(C)C)CC1` (stereo not drawn), the “hERG current change (%, negative = inhibition) at 1uM” value was determined as 8.81%.

Take `CCN1CCN(C(=O)CS(=O)(=O)Cc2nc(-c3ccc(C)cc3)oc2C)CC1`: the “hERG current change (%, negative = inhibition) at 1uM” value was 11.4%.

On to `CC(OC(=O)CN1C(=O)NC2(CCCC2)C1=O)C(=O)c1ccccc1` (stereo not drawn), for which the “hERG current change (%, negative = inhibition) at 1uM” value was 14%.

On to `CCSc1ccc2nnc(-c3cccc(F)c3)n2n1`, for which the “hERG current change (%, negative = inhibition) at 1uM” value stood at 2.2%.

As to `CSc1nc(S(=O)(=O)c2ccccc2)c(Cl)s1`, the “hERG current change (%, negative = inhibition) at 1uM” value was 17%.

Turning to `CC(=O)Nc1ccc(NC(=O)C(C)OC(=O)CCC2CCCCC2)cc1` (stereo not drawn), the “hERG current change (%, negative = inhibition) at 1uM” value is reported as 0.461%.

Take `O/N=C1\CC(O)Cc2nonc21` (stereo not drawn): the “hERG current change (%, negative = inhibition) at 1uM” value was 12.6%.

On to `CN(C)C1=NCCN1CCc1cccc(F)c1`, for which the “hERG current change (%, negative = inhibition) at 1uM” value is on record as 0.142%.

Consider `CN1CCN(C(=O)CCC(=O)O)CC1`, for which the “hERG current change (%, negative = inhibition) at 1uM” value was 10.9%.

Turning to `Cc1cnc(NC(=O)Nc2ccc(Cl)cc2)s1`, the “hERG current change (%, negative = inhibition) at 1uM” value amounted to 5.17%.

As to `COc1ccc(OC)c(NC(=S)NN2CCN(C)CC2)c1`, the “hERG current change (%, negative = inhibition) at 1uM” value is on record as 5.8%.

Take `CCOC(=O)CSc1nnc2n(C3CCCCC3)c(=O)c3c4c(sc3n12)CCCC4`: the “hERG current change (%, negative = inhibition) at 1uM” value was 12%.

As for `O=c1oc(-c2ccc(Br)cc2)nc2ccccc12`, the “hERG current change (%, negative = inhibition) at 1uM” value stood at 16.3%.

Take `CC1CC(C)(C)CC2(C1)NC(=O)N(CC(=O)Nc1ccc(N3CCCCC3)cc1)C2=O` (stereo not drawn): the “hERG current change (%, negative = inhibition) at 1uM” value is 19.4%.

Take `COc1ccc(S(=O)(=O)N2CCC(O)(c3ccc(Cl)cc3)CC2)cc1`: the “hERG current change (%, negative = inhibition) at 1uM” value is 20.2%.

For `CCOc1ccc(OCCC(=O)OCC(=O)c2c(N)n(C)c(=O)n(C)c2=O)cc1`, the “hERG current change (%, negative = inhibition) at 1uM” value was 7.01%.

For the compound `COc1ccc(C(=O)NN)cc1COc1ccc(Br)cc1`, the “hERG current change (%, negative = inhibition) at 1uM” value is -9.74%.

On to `O=C(CCNS(=O)(=O)c1ccccc1C(F)(F)F)NNC(=O)C1COc2ccccc2O1` (stereo not drawn), for which the “hERG current change (%, negative = inhibition) at 1uM” value was found to be 10%.

`O=C(c1ccccc1)N1CCN(C(=S)NCc2ccc3c(c2)OCO3)CC1`: the “hERG current change (%, negative = inhibition) at 1uM” value is recorded as -12.1%.

Turning to `CCN1CCN(S(=O)(=O)c2ccc(Cl)c(C(=O)Nc3ccc(C(=O)N(CC)CC)cc3)c2)CC1`, the “hERG current change (%, negative = inhibition) at 1uM” value was found to be 6.61%.

In the case of `COC(=O)N/N=C\c1ccc(-c2cc(Cl)c(Cl)cc2Cl)o1`, the “hERG current change (%, negative = inhibition) at 1uM” value is -0.917%.

On to `Cc1nn(-c2ccccc2)nc1CNC(=O)CC(C)(C)C`, for which the “hERG current change (%, negative = inhibition) at 1uM” value is 12.3%.

With `CC(C)C(C)NC(=O)CN1C(=O)NC2(CCCCCC2)C1=O` (stereo not drawn), the “hERG current change (%, negative = inhibition) at 1uM” value amounted to 8.23%.

Turning to `Cc1cccc(OC(C)C(=O)N2CCN(Cc3ccc4c(c3)OCO4)CC2)c1` (stereo not drawn), the “hERG current change (%, negative = inhibition) at 1uM” value is -8.4%.

In the case of `CCc1ccc(NC(=S)Nc2cc(C(=O)O)ccc2N2CC3CC(C2)c2cccc(=O)n2C3)cc1` (stereo not drawn), the “hERG current change (%, negative = inhibition) at 1uM” value is given as 8.87%.

In the case of `Cc1ccc(-n2c(SCC(N)=O)nc3c(c2=O)C2(CCCC2)Cc2ccccc2-3)cc1`, the “hERG current change (%, negative = inhibition) at 1uM” value is recorded as 7.56%.

In the case of `Cc1cc(/C=N/NC(=O)Cn2c3ccccc3c(=O)c3ccccc32)c(C)n1-c1ccccc1`, the “hERG current change (%, negative = inhibition) at 1uM” value worked out at 1.41%.

As for `COc1cc(C2C3CN(C)CC=C3C(C#N)=C(N)C2(C#N)C#N)ccc1OC(C)C` (stereo not drawn), the “hERG current change (%, negative = inhibition) at 1uM” value is reported as 5.13%.

In the case of `CC(C)(C)c1nc(NCCO)c2nnn(Cc3ccccc3)c2n1`, the “hERG current change (%, negative = inhibition) at 1uM” value came to 4.82%.

Consider `Cc1ccc(C)c(S(=O)(=O)Nc2nc(C)c(C(=O)Nc3ccccc3)s2)c1`, for which the “hERG current change (%, negative = inhibition) at 1uM” value was 8.01%.

On to `O=C(O)c1cccc(-n2cccc2/C=C/[N+](=O)[O-])c1`, for which the “hERG current change (%, negative = inhibition) at 1uM” value came out at 9.75%.

In the case of `CCn1nc(C(=O)Nc2ccc(S(=O)(=O)Nc3nccs3)cc2)c2ccccc2c1=O`, the “hERG current change (%, negative = inhibition) at 1uM” value was 8.22%.

Consider `COc1ccc(/C=N/N2CCOCC2)cc1COc1ccc(F)cc1`, for which the “hERG current change (%, negative = inhibition) at 1uM” value is on record as 2.44%.

With `CN(C(=O)COC(=O)Cn1c(C(F)(F)F)nc2ccccc21)c1c(N)n(Cc2ccccc2)c(=O)[nH]c1=O`, the “hERG current change (%, negative = inhibition) at 1uM” value stood at 9.05%.

`O=c1c2ccccc2ncn1Cc1ccc(Cl)cc1`: the “hERG current change (%, negative = inhibition) at 1uM” value is given as -8.09%.

In the case of `CCC1C(=O)N=C(SCC(=O)NC2CCCCC2)NC1=O` (stereo not drawn), the “hERG current change (%, negative = inhibition) at 1uM” value stood at 16.8%.

Regarding `CCN(CC)CCNC(=O)C1(O)c2cc(Br)ccc2NC(=O)N1c1ccccc1` (stereo not drawn), the “hERG current change (%, negative = inhibition) at 1uM” value stood at 7.76%.

In the case of `CCC1(c2ccc(C)cc2)NC(=O)N(CC(=O)Nc2cccc(S(=O)(=O)N3CCCC3)c2)C1=O` (stereo not drawn), the “hERG current change (%, negative = inhibition) at 1uM” value is 9.79%.

With `Cc1cc(NC(=O)CSc2nc3cc4c(cc3c(=O)n2CCc2ccccc2)OCO4)no1`, the “hERG current change (%, negative = inhibition) at 1uM” value is recorded as 5.94%.

`CCN(CC)S(=O)(=O)c1cc([N+](=O)[O-])ccc1NNC(=O)Nc1ccc(F)cc1`: the “hERG current change (%, negative = inhibition) at 1uM” value is recorded as 8.81%.

`CC1(C)CC(=O)c2cn3nc(C(F)(F)F)nc3nc2C1`: the “hERG current change (%, negative = inhibition) at 1uM” value is on record as 9.97%.

With `Cc1ccc(N=Nc2ccc(N)cc2C)c(S(N)(=O)=O)c1`, the “hERG current change (%, negative = inhibition) at 1uM” value is given as 13.3%.

Take `NC(=O)COC(=O)c1ccc2c(c1)S(=O)(=O)c1ccccc1C2=O`: the “hERG current change (%, negative = inhibition) at 1uM” value was determined as 4.96%.

Consider `CC(C)c1cc(=O)n2[nH]c(SCc3ccccc3Cl)nc2n1`, for which the “hERG current change (%, negative = inhibition) at 1uM” value is recorded as 20.2%.

As to `COCCNC(=O)CCC1CCN(C/C=C/c2ccccc2OC)CC1`, the “hERG current change (%, negative = inhibition) at 1uM” value is given as 4.61%.

Take `Cc1ccc(CNC(=O)CCc2nnc3ccc(N4CCC5(CC4)OCCO5)nn23)cc1`: the “hERG current change (%, negative = inhibition) at 1uM” value is reported as 19.5%.
